Experimental data from publication PMC2211523, “Atypical AAA+ Subunit Packing Creates an Expanded Cavity for Disaggregation by the Protein-Remodeling Factor Hsp104” (Cell, 2007).

What was measured:
[1] = target: the molecule itself; assay: cryo-EM structure; 0.3 mg/ml protein in 20 mM HEPES (pH 7.5), 20 mM NaCl, 10 mM MgCl2, 1 mM DTT, 2 mM ATPγS; single particle reconstruction with 6-fold symmetry
[2] = target: the molecule itself; assay: cross-linking; glutaraldehyde crosslinking in the absence of nucleotide, 0.2 μM monomer; 40 mM HEPES-KOH (pH 7.4), 150 mM KCl, 20 mM MgCl2, 1 mM DTT
[3] = target: the molecule itself; assay: cross-linking; glutaraldehyde (0.1%, 10 min), 0.2 μM monomer, with 1 mM ATP; 40 mM HEPES-KOH (pH 7.4), 150 mM KCl, 20 mM MgCl2, 1 mM DTT

B1: Hsp104 Δ[…] (ΔN) (domain or fragment)
chain: not shown
notes: Hsp104 from S. cerevisiae lacking […] (N-terminal domain deleted); Forms a hexamer with ATPγS (cryo-EM); also called Hsp104 ΔN; N-terminal deletion mutant; source: E. coli BL21-Codon Plus-RIL, purified as described (Hattendorf and Lindquist, 2002a)
- stoichiometry N [1]: 6

B2: Hsp104^N728A (full-length Hsp104, sensor-1 mutation in NBD2) (natural protein)
chain: not shown
notes: Hsp104 from S. cerevisiae, full length, with the sensor-1 mutation N728A in NBD2; Forms a hexamer with ATPγS (cryo-EM); source: E. coli BL21-Codon Plus-RIL, purified as described (Hattendorf and Lindquist, 2002a)
- stoichiometry N [1]: 6

B3: Hsp104^R765M (natural protein)
chain: not shown
notes: Hsp104 from S. cerevisiae with R765M (NBD2); Made by QuikChange mutagenesis; construct as for wild-type Hsp104 (Shorter and Lindquist, 2004); also called predicted NBD2 arginine finger mutant; source: purified as described (Shorter and Lindquist, 2004)
- binding result [2]: binds

B4: Hsp104^R419M (natural protein)
chain: not shown
notes: Hsp104 from S. cerevisiae with R419M (helix L1 of the coiled-coil domain); Made by QuikChange mutagenesis; construct as for wild-type Hsp104 (Shorter and Lindquist, 2004); source: purified as described (Shorter and Lindquist, 2004)
- binding result [3]: binds

B5: Hsp104^R444M (natural protein)
chain: not shown
notes: Hsp104 from S. cerevisiae with R444M (helix L2 of the coiled-coil domain); Made by QuikChange mutagenesis; construct as for wild-type Hsp104 (Shorter and Lindquist, 2004); source: purified as described (Shorter and Lindquist, 2004)
- binding result [3]: binds

B6: Hsp104^R495M (natural protein)
chain: not shown
notes: Hsp104 from S. cerevisiae with R495M (helix L2 of the coiled-coil domain); Made by QuikChange mutagenesis; construct as for wild-type Hsp104 (Shorter and Lindquist, 2004); source: purified as described (Shorter and Lindquist, 2004)
- binding result [3]: binds

B7: Hsp104^R334M (natural protein)
chain: not shown
notes: Hsp104 from S. cerevisiae with R334M (NBD1); Made by QuikChange mutagenesis; construct as for wild-type Hsp104 (Shorter and Lindquist, 2004); also called predicted NBD1 arginine finger mutant; source: purified as described (Shorter and Lindquist, 2004)
- stoichiometry N [3]: 6
